Measured values taken from article PMC10848721.
These are yes or no findings as the source states them, for the method shown. Binding seen in cells or lysates may run through a third protein. Some entries that bind do so weakly or less than the wild type. For some assays here: Where a sequence is shown, tags or fusion partners need not be part of it.

Sequences of proteins named here, by UniProt entry; tags and fusion partners are left off. A change or cut given only in a name is not applied to a line headed by its entry. A line that says so, or that is headed by a name, gives the form on record, which may keep a tag or linker. Residues count along the entry.
TMEM55B residues 80 to 160 (Q86T03, residues 73-153): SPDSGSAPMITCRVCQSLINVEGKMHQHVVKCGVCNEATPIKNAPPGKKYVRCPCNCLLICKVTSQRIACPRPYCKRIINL
Halo-TMEM55B (Q86T03-2, form named): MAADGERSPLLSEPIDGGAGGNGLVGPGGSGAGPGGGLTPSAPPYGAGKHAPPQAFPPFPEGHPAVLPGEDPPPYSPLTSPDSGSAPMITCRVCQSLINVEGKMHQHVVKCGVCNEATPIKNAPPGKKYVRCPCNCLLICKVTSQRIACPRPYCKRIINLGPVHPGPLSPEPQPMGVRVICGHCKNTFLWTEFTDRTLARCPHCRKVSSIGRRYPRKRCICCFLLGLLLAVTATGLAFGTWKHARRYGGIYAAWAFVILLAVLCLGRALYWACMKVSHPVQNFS
TMEM55B K141E (Q86T03-2, form named): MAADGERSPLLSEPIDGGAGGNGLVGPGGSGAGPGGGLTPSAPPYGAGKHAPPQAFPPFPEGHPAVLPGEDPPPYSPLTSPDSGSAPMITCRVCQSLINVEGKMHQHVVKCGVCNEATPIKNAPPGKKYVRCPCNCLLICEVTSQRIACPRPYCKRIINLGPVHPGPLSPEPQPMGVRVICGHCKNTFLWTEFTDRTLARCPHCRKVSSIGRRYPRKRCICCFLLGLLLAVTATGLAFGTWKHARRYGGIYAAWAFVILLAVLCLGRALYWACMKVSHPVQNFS
TMEM55B R151E (Q86T03-2, form named): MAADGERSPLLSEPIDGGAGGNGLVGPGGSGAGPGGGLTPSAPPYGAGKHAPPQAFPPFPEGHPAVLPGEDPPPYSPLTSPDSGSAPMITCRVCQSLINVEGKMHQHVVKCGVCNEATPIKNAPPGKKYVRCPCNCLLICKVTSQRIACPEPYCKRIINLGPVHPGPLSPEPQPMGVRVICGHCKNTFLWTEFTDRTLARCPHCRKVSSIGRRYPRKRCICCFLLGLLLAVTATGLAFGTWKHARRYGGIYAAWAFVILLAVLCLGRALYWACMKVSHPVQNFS
UniProt Q8N4L2: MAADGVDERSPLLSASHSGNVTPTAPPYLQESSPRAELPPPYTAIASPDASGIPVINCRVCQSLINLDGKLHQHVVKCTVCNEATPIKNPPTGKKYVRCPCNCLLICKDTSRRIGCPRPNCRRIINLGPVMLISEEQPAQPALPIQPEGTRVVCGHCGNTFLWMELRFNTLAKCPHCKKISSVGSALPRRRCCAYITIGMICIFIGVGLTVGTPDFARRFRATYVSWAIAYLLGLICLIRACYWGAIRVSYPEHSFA

B1: RILPL1 (found with overexpressed TMEM55B or TMEM55A) (protein, UniProt Q5EBL4 1-403)
chain: MEEERGSALAAESALEKNVAELTVMDVYDIASLVGHEFERVIDQHGCEAIARLMPKVVRVLEILEVLVSRHHVAPELDELRLELDRLRLERMDRIEKERKHQKELELVEDVWRGEAQDLLSQIAQLQEENKQLMTNLSHKDVNFSEEEFQKHEGMSERERQVMKKLKEVVDKQRDEIRAKDRELGLKNEDVEALQQQQTRLMKINHDLRHRVTVVEAQGKALIEQKVELEADLQTKEQEMGSLRAELGKLRERLQGEHSQNGEEEPETEPVGEESISDAEKVAMDLKDPNRPRFTLQELRDVLHERNELKSKVFLLQEELAYYKSEEMEEENRIPQPPPIAHPRTSPQPESGIKRLFSFFSRDKKRLANTQRNVHIQESFGQWANTHRDDGYTEQGQEALQHL

What was measured:
[1] = molecular target: T1, RILPL1 lacking the last eight amino acids (UniProt Q5EBL4); experiment: co-IP; GFP-Trap agarose IP of GFP-tagged RILPL1 from lysates of transiently transfected HEK293 cells (with Flag-LRRK2 Y1699C and HA-Rab8A Q67L as indicated), 1 to 2 hours; washed with 50 mM tris-HCl pH 7.5, 150 mM NaCl; quantitative immunoblot
T1 sequence: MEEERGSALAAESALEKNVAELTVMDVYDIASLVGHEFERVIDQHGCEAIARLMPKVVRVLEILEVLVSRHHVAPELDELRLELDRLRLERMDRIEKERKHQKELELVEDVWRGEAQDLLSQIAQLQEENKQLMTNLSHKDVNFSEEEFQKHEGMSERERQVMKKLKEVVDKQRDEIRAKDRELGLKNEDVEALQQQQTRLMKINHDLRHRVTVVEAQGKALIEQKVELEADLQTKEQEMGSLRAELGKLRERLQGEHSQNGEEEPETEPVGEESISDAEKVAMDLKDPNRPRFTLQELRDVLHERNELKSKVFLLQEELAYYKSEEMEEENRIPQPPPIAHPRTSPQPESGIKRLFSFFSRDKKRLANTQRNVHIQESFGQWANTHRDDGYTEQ

RILPL1-GFP WT = molecular target: T2, RILPL1-GFP WT (UniProt Q5EBL4); experiment: as above
T2 sequence: B1 chain

TMEM55B K141E = TMEM55B K141E (UniProt Q86T03); experiment: co-IP; HaloLink Resin IP of Halo-TMEM55B (full-length, truncated or point mutants) from lysates of transiently transfected HEK293 cells, 1 to 2 hours; washed with 50 mM tris-HCl pH 7.5, 150 mM NaCl; quantitative immunoblot
TMEM55B R151E = TMEM55B R151E (UniProt Q86T03); experiment: as above
[2] = molecular target: TMEM55B residues 80 to 160 (UniProt Q86T03); experiment: as above
Halo-TMEM55B [3] = molecular target: Halo-TMEM55B (UniProt Q86T03); experiment: as above
TMEM55A = TMEM55A (UniProt Q8N4L2); experiment: co-IP; fig. S11B; 'overexpression studies'; legend not shown; bait and tags not told
Halo-TMEM55B [4] = molecular target: Halo-TMEM55B (UniProt Q86T03); experiment: as above

Row | Molecule | binding [1] | binding (RILPL1-GFP WT) | binding (TMEM55B K141E) | binding (TMEM55B R151E) | binding [2] | binding (Halo-TMEM55B [3]) | binding (TMEM55A) | binding (Halo-TMEM55B [4])
1 | endogenous TMEM55B (from UniProt Q86T03-2 1-284) | no binding | binds | – | – | – | – | – | –
2 | B1 | – | – | binds | no binding | binds | binds | binds | binds
